Assay results published in patent publication US20240117043A1 (SHANGHAI JUNSHI BIOSCIENCES, published 2024).
Values belong to the binder of their own block, whether it stands above or below them.

Assays:
[1] = target: T1, recombinant human TIGIT (His Tag) (human, UniProt Q495A1 22-141); assay: ELISA, relative binding activity, sample kept at 40 C for 0 weeks
T1 construct: Coated antigen of the ELISA; not shown: His tag
T1 sequence (looked up): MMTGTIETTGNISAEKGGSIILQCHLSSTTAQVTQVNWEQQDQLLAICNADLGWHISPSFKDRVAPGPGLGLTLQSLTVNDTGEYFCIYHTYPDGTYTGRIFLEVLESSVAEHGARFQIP
Protocol: (§1) The antibody samples were exchanged into a pH 5.5 buffer system (20 mM histidine-histidine hydrochloride buffer, 230 mM trehalose) with the concentration of the samples controlled at about 5 mg/mL, and the buffer was aliquoted into vials at 500 μL/vial. The vials were placed in a 40° C. incubator to test stability at 0 W, 2 W and 4 W. Samples were sent for analysis according to Table 2. Stability was assessed by the following parameters: (a) the content of antibody monomers, aggregates or fragments determined by SEC-HPLC (size exclusion chromatography); (b) the molecular weight of the antibody determined by CE-SDS (sodium dodecyl sulfate capillary electrophoresis); and (c) the bioactivity of the antibody determined by an ELISA or reporter gene assay.

[2] = target: T2, recombinant human HX1 hCD112R Fc (human, UniProt Q6DKI7 41-171, limits assumed); assay: as above
T2 construct: Coated antigen of the ELISA (Suzhou Junmeng); also called human CD112R; not shown: Fc part
T2 sequence (looked up): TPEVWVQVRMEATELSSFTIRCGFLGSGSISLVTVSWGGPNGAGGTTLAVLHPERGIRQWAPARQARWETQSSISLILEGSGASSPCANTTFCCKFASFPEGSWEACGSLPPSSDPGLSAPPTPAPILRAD
Protocol: as §1

[3] = target: T1, recombinant human TIGIT (His Tag); assay: ELISA, relative binding activity, sample kept at 40 C for 2 weeks
Protocol: as §1

[4] = target: T2, recombinant human HX1 hCD112R Fc; assay: as above
Protocol: as §1

[5] = target: T1, recombinant human TIGIT (His Tag); assay: ELISA, relative binding activity, sample kept at 40 C for 4 weeks
Protocol: as §1

[6] = target: T2, recombinant human HX1 hCD112R Fc; assay: as above
Protocol: as §1

[7] = target: T2, recombinant human HX1 hCD112R Fc; assay: ELISA, plate coated with recombinant human HX1 hCD112R Fc, detection with HRP anti-human IgG4 Fc; unit taken from the concentration axis [3a]
Protocol: 2. Procedures [0255] a. A 96-well plate was coated with 1.0 μg/mL recombinant human HX1 hCD112R Fc (Suzhou Junmeng) as the antigen at 100 μL/well and incubated at 37° C. for 1.5 h. [0256] b. The plate was washed 4 times with 300 μL/well 1×PBST, and 2% BSA was added at 200 μL/well. The plate was blocked at 37° C. for 1.5 h. [0257] c. The plate was washed 4 times with 300 μL/well 1×PBST, and serial dilutions of the bispecific antibodies JS-1,3,5,9 and a negative control: antibody (anti-KLH hIgG4) (initial concentration 3.0 μg/mL, 3-fold serially diluted to 12 concentration points, 100 μL/well) were added. The plate was incubated at 37° C. for 1 h. [0258] d. The plate was washed 4 times with 300 μL/well 1×PBST. [0259] e. 5000-fold diluted horseradish peroxidase (HRP)-conjugated mouse anti-human IgG4 Fc antibody (Southern Biotech, 9200-05) was added at 100 μL/well, and the plate was incubated at 37° C. for 1 h. [0260] f. The plate was washed 4 times with 300 μL/well 1×PBST. [0261] g. 0.1 mg/mL TMB was added at 100 μL/well, and after the plate was incubated at 37° C. for 15 min, a 2 M solution of hydrochloric acid was added at 100 μL/well to stop the reactions. […] The absorbance was measured at 450 nm/620 nm on a microplate reader, and data were analyzed using Graphpad Prism7.

[8] = target: T1, recombinant human TIGIT (His Tag); assay: ELISA, plate coated with recombinant human TIGIT (His Tag), detection with HRP anti-human IgG4 Fc; unit taken from the concentration axis [2a]
Protocol: 2. Procedures [0241] a. A 96-well plate was coated with 1.5 μg/mL recombinant human TIGIT (His Tag) (Suzhou Junmeng) as the antigen at 100 μL/well and incubated at 37° C. for 1.5 h. [0242] b. The plate was washed 4 times with 300 μL/well 1×PBST, and 2% BSA was added at 200 μL/well. The plate was blocked at 37° C. for 1.5 h. [0243] c. The plate was washed 4 times with 300 μL/well 1×PBST, and serial dilutions of the bispecific antibodies JS-1,3,5,9 and a negative control: antibody (anti-KLH hIgG4) (initial concentration 1.0 μg/mL, 3-fold serially diluted to 12 concentration points, 100 μL/well) were added. The plate was incubated at 37° C. for 1 h. [0244] d. The plate was washed 4 times with 300 μL/well 1×PBST. [0245] e. 5000-fold diluted horseradish peroxidase (HRP)-conjugated mouse anti-human IgG4 Fc antibody (Southern Biotech, 9200-05) was added at 100 μL/well, and the plate was incubated at 37° C. for 1 h. […] The plate was washed 4 times with 300 μL/well 1×PBST. [0247] g. 0.1 mg/mL TMB was added at 100 μL/well, and after the plate was incubated at 37° C. for 15 min, a 2 M solution of hydrochloric acid was added at 100 μL/well to stop the reactions. [0248] h. The absorbance was measured at 450 nm/620 nm on a microplate reader, and data were analyzed using Graphpad Prism7.

[9] = target: T3, human CD112R-mFc protein (human, UniProt Q6DKI7 41-171, limits assumed); assay: flow cytometry, blocking of 1 ug/mL CD112R-mFc binding to CHO hCD112 cells
T3 construct: also called human CD112R protein; not shown: mouse Fc (mFc)
T3 sequence (looked up): T2 sequence (looked up)
Protocol: CHO hCD112 cells (Chinese hamster ovary cells, human CD112 positive) were incubated with different concentrations of the bispecific antibodies JS-1, JS-3, JS-5 and JS-9 and 1 μg/mL human CD112R-mFc protein at 4° C. for 30 min, then washed twice and incubated with a fluorescence-labeled anti-mouse IgG secondary antibody (1:200) in a dark place at 4° C. for 30 min. Finally, the cells were collected using a flow cytometer (BD Canto II), and the fluorescent antibodies bound to the cell surface were detected. Raw data were analyzed using FlowJo to obtain MFI values, antibody dose-dependent binding curves (FIG. 4) were fitted using GraphPad, and IC50 was calculated. The positive controls were hu52 (a recombinant humanized anti-CD112R monoclonal antibody) and JS-Ref (Hengrui) (an anti-TIGIT/CD112R bispecific antibody of Hengrui, expressed and purified according to the sequence of the patent WO2021180205), and the negative control was an anti-KLH-hIgG1 antibody.

[10] = target: T4, human TIGIT on the surface of Jurkat-hTIGIT cells (human, UniProt Q495A1 22-244); assay: flow cytometry, blocking of 1 ug/mL PVR-mFc binding to Jurkat-hTIGIT cells
T4 construct: whole, on cells; also called human TIGIT on the surface of Jurkat cells
T4 sequence (looked up): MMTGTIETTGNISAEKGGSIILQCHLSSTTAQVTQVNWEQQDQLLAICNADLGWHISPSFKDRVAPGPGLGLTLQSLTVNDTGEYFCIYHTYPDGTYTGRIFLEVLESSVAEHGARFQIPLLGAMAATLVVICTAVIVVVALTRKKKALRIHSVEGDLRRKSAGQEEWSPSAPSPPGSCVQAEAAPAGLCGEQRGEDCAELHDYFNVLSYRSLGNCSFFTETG
Protocol: Jurkat-hTIGIT cells (human T lymphocytes, human TIGIT positive) were incubated with different concentrations of the bispecific antibodies JS-1, JS-3, JS-5 and JS-9 and 1 μg/mL human PVR-mFc protein at 4° C. for 30 min, then washed and incubated with a fluorescence-labeled anti-mouse IgG secondary antibody (1:200) in a dark place at 4° C. for 30 min. Finally, the cells were collected using a flow cytometer (BD Canto II), and the fluorescent antibodies bound to the cell surface were detected. Raw data were analyzed using FlowJo to obtain MFI values, antibody dose-dependent binding curves (FIG. 4) were fitted using GraphPad, and IC50 was calculated. The positive controls were hu20 (a recombinant humanized anti-TIGIT monoclonal antibody) and JS-Ref (Hengrui) (an anti-TIGIT/CD112R bispecific antibody of Hengrui, expressed and purified according to the sequence of the patent WO2021180205), and the negative control was an anti-KLH-hIgG4 antibody.

TIGIT binding activity Elisa (%) [1]: 108%
CD112R binding activity Elisa (%) [2]: 115%
TIGIT binding activity Elisa (%) [3]: 89%
CD112R binding activity Elisa (%) [4]: 124%
TIGIT binding activity Elisa (%) [5]: 103%
CD112R binding activity Elisa (%) [6]: 105%
EC50 [7]: 0.0282 µg/mL
EC50 [8]: 0.0833 µg/mL
B1: bispecific antibody JS-5 (IgG4) (bispecific antibody)
heavy: QVQLVQSGAEVKKPGASVKVSCKTSGYAFTEYTMHWVRQAPGKGLEWMGGINPNTGGTTYNQKFQGRVTLTVDKSSSTAYMELSSLRSEDTVVYYCAKLLRLMYYFDYWGQGTLVTVSSASTKGPSVFPLAPCSRSTSESTAALGCLVKDYFPEPVTVSWNSGALTSGVHTFPAVLQSSGLYSLSSVVTVPSSSLGTKTYTCNVDHKPSNTKVDKRV[human IgG4 Fc with S228P (EU numbers) omitted here]GGGSGGGGSDIVMTQSPDSLAVSLGERATINCKASQSVSNDVAWYQQKPGQPPKLLIYYVSHRFTGVPDRFSGSGSGTDFTLTISSLQAEDVAVYFCHQAYRSPWTFGCGTKLEIKGGGGSGGGGSGGGGSGGGGSEVQLVESGGGLVKPGGSLRLSCAASGFTFSSYHMSWVRQAPGKCLELVSAINSNGINTYYLDTVKGRFTISRDNAKNSLYLQMNSLRAEDTAVYYCARHEDYYGFAMDYWGQGTLVTVSS
light: DIQMTQSPSSLSASVGDRVTITCQASQDVRTAVAWYQQKPGKAPKLLIYSASYRYTGVPSRFSGSGSGTDFTFTISSLQPEDIATYYCHQHYITPWTFGGGTKVEIKRTVAAPSVFIFPPSDEQLKSGTASVVCLLNNFYPREAKVQWKVDNALQSGNSQESVTEQDSKDSTYSLSSTLTLSKADYEKHKVYACEVTHQGLSSPVTKSFNRGEC
notes: Tetravalent

TIGIT binding activity Elisa (%) [1]: 105%
CD112R binding activity Elisa (%) [2]: 99%
TIGIT binding activity Elisa (%) [3]: 98%
CD112R binding activity Elisa (%) [4]: 95%
TIGIT binding activity Elisa (%) [5]: 99%
CD112R binding activity Elisa (%) [6]: 98%
IC50 [9]: 0.623 nM
IC50 [10]: 3.93 nM
B2: bispecific antibody JS-9 (IgG1) (bispecific antibody)
heavy: DIVMTQSPDSLAVSLGERATINCKASQSVSNDVAWYQQKPGQPPKLLIYYVSHRFTGVPDRFSGSGSGTDFTLTISSLQAEDVAVYFCHQAYRSPWTFGCGTKLEIKGGGGSGGGGSGGGGSGGGGSEVQLVESGGGLVKPGGSLRLSCAASGFTFSSYHMSWVRQAPGKCLELVSAINSNGINTYYLDTVKGRFTISRDNAKNSLYLQMNSLRAEDTAVYYCARHEDYYGFAMDYWGQGTLVTVSSGGGGSGGGGSQVQLVQSGAEVKKPGASVKVSCKTSGYAFTEYTMHWVRQAPGKGLEWMGGINPNTGGTTYNQKFQGRVTLTVDKSSSTAYMELSSLRSEDTVVYYCAKLLRLMYYFDYWGQGTLVTVSS[human IgG1 constant region omitted here]
light: B1 light
notes: Tetravalent

TIGIT binding activity Elisa (%) [1]: 97%
CD112R binding activity Elisa (%) [2]: 99%
TIGIT binding activity Elisa (%) [3]: 100%
CD112R binding activity Elisa (%) [4]: 99%
TIGIT binding activity Elisa (%) [5]: 72%
CD112R binding activity Elisa (%) [6]: 80%
IC50 [9]: 0.781 nM
IC50 [10]: 1.86 nM
B3: bispecific antibody JS-5 (IgG1) (bispecific antibody)
heavy: QVQLVQSGAEVKKPGASVKVSCKTSGYAFTEYTMHWVRQAPGKGLEWMGGINPNTGGTTYNQKFQGRVTLTVDKSSSTAYMELSSLRSEDTVVYYCAKLLRLMYYFDYWGQGTLVTVSS[human IgG1 constant region omitted here]GGSGGGGSDIVMTQSPDSLAVSLGERATINCKASQSVSNDVAWYQQKPGQPPKLLIYYVSHRFTGVPDRFSGSGSGTDFTLTISSLQAEDVAVYFCHQAYRSPWTFGCGTKLEIKGGGGSGGGGSGGGGSGGGGSEVQLVESGGGLVKPGGSLRLSCAASGFTFSSYHMSWVRQAPGKCLELVSAINSNGINTYYLDTVKGRFTISRDNAKNSLYLQMNSLRAEDTAVYYCARHEDYYGFAMDYWGQGTLVTVSS
light: B1 light
notes: Tetravalent
